Experimental data from PMC4336329 (PLoS ONE, 2015).
About 14,000 (4.5%) of roughly 310,000 compounds showed an effect of 50% or more. Effects have a minus sign here. The list shows a part of the results.

Each molecule was assayed against human ether-à-go-go-related gene (hERG) potassium channel (human, UniProt Q12809) (assay: primary screen, population patch clamp on CHO cells stably expressing hERG).
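Also: peak tail current of the secondary pulse compared with the same well before compound.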

Sequence of human ether-à-go-go-related gene (hERG) potassium channel (Q12809 whole entry, looked up): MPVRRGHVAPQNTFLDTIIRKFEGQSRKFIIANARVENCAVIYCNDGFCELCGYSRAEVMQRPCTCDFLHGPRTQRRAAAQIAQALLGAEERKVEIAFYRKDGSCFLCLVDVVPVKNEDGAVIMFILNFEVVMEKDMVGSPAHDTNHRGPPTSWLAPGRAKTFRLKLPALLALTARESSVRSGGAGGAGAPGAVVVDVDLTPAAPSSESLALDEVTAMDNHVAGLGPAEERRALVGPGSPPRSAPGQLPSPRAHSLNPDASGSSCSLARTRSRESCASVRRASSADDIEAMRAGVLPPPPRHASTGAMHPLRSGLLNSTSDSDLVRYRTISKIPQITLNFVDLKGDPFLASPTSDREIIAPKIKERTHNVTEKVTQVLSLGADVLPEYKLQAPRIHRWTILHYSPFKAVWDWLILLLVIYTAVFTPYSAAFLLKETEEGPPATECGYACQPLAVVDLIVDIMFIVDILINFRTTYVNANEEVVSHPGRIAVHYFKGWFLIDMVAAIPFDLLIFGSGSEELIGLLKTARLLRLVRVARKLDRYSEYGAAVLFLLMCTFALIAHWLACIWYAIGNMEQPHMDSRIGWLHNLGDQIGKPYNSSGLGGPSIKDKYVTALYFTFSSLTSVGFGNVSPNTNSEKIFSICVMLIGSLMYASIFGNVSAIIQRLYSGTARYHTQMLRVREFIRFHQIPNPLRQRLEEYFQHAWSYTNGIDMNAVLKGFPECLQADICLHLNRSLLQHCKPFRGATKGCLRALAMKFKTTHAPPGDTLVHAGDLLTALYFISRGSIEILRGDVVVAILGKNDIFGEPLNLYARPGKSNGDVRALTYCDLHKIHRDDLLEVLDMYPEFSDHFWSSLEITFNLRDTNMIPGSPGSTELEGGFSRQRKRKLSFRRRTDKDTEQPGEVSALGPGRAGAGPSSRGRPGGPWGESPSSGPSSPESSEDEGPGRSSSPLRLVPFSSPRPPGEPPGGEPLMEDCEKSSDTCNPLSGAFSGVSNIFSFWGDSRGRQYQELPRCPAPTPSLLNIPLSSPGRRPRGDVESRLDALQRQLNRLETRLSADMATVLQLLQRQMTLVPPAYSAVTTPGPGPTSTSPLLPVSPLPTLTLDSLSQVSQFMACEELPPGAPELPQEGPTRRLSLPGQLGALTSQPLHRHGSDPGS

Row | Structure (SMILES) | hERG current change (%, negative = inhibition) at 10uM [%]
1 | O=C1CC(NCc2ccc3c(c2)OCO3)C(=O)N1CCc1ccccc1 (centres unmarked) | -15.7
2 | Cc1ccc(S(=O)(=O)N2CCN(Cc3cc(C(C)(C)C)ccc3O)CC2)cc1 | 6.86
3 | O=C(O)C1Cc2ccccc2CN1S(=O)(=O)/C=C/c1ccccc1 (centres unmarked) | 22.5
4 | COc1ccc(OC)c(NC(=O)CSc2nc(=O)n(CCN3CCOCC3)c3c2CCCC3)c1 | -30.8
5 | COC(=O)c1ccc(/C=N/NC(=O)C(=O)NCC2CCCO2)cc1 (centres unmarked) | 13.4
6 | Cc1nc(C)c(C(=O)C2=C(O)C(=O)N(CCCn3ccnc3)C2c2ccc(Cl)cc2)s1 (centres unmarked) | 3.48
7 | COCCN1CN(S(=O)(=O)c2ccccc2)c2nc3ccccc3nc21 | -16.7
8 | CCN(CC)S(=O)(=O)c1ccc(NC2=NS(=O)(=O)c3ccccc32)cc1 | -19.9
9 | CN1CCN(CC(=O)N2c3ccc(S(=O)(=O)NCCNC(=O)OC(C)(C)C)cc3C(=O)Nc3cccnc32)CC1 | 4.31
10 | Cc1cc(C)c(S(=O)(=O)c2ccccc2)c(OC(=O)c2c(Cl)cccc2Cl)n1 | -4.78
11 | COc1cccc(CNC(=O)CSCc2cnn(-c3ccccc3)c2-n2cccc2)c1OC | -36.6
12 | CC1CCC2(CC1)NC(=O)N(CC(=O)NC(=O)Nc1ccc3c(c1)OCCO3)C2=O (centres unmarked) | -4.34
13 | N#CCC(=O)N/N=C/c1cc(-c2ccccc2)n(-c2ccc(Cl)cc2)c1-c1ccccc1 | 13
14 | CCc1c(O)nc(SCC(=O)Nc2ccccc2)n(C(C)CC)c1=O (centres unmarked) | 7.15
15 | O=C(CCc1nnc2n(Cc3ccccc3)c(=O)c3ccccc3n12)NCCN1CCOCC1 | -1.06
16 | O=C(COC(=O)COc1ccc(Cl)cc1Cl)Nc1cccnc1Cl | -3.03
17 | FC(F)(F)c1ccnc(Sc2n[nH]c(C(F)(F)F)n2)c1 | 7.03
18 | O=C(CC1C(=O)NCCN1Cc1c(F)cccc1Cl)NCCCOc1cccnc1 (centres unmarked) | 16.6
19 | O=C(CNc1n[nH]c(=O)[nH]c1=O)N/N=C/c1cccnc1 | -8.53
20 | Cc1ccc(-c2noc(CNCCCN(C)C)n2)cc1 | -6.05
21 | Cc1nc2cc(NC(=O)c3ccc(S(=O)(=O)N(C)c4ccccc4)cc3)ccc2o1 | 23
22 | COc1cccc2c(=O)n(CC(=O)N3CCCc4ccccc43)ccc12 | -0.155
23 | COc1ccc(CNC(=O)c2ccc3c(=O)n(-c4ccccc4)c(=O)[nH]c3c2)cc1 | 12.8
24 | Cc1cc(=O)[nH]c(SCC(=O)Nc2c(C)n(C)n(-c3ccccc3)c2=O)n1 | 3.71
25 | Cc1cc(NC(=O)c2cccc(Br)c2)no1 | 19.1
26 | Cc1ccc(NS(=O)(=O)c2ccc3c(c2)NC(=O)CCS3)cc1C | -3.53
27 | CCCC1CC(C)(c2csc(Nc3ccc(OCC)cc3)n2)OC1=O (centres unmarked) | 1.6

Row | Structure (SMILES) | hERG current change (%, negative = inhibition) at 10uM [%]
28 | Cc1ccccc1NC(=O)c1cccc2c1C(=O)N(C1CCCCC1)C2 | 1.52
29 | O=C(CN1C(=O)NC2(CCCCCC2)C1=O)Nc1cccc(F)c1 | -13.5
30 | CCc1nc2ccc(C(=O)N3CCN(c4ccccc4F)CC3)cc2nc1CC | -19.5
31 | CC(C)NC(=O)CSc1nc(Cc2ccccc2)nc2ccccc12 | -5.74
32 | Cc1nn(C)c(C)c1/C=C(/C(=O)C(C)(C)C)n1cncn1 | 28.5
33 | CCOC(=O)C1=C(O)C(=O)N(c2ccc(S(N)(=O)=O)cc2)C1c1ccc([N+](=O)[O-])cc1 (centres unmarked) | -18.7
34 | O=C(Nc1nc2ccccc2[nH]1)C1CCN(S(=O)(=O)c2cccs2)CC1 | -0.923
35 | COc1ccc(/C=N\NC(=O)COc2ccc(Cl)cc2Cl)c(C(=O)O)c1OC | -1.28
36 | COc1cccc(NC(=O)CN(C)C(=O)c2cc(-c3ccc(F)cc3)nc3ccccc23)c1 | -24.3
37 | O=C(O)c1cccc(NCc2ccncc2)c1 | 14.6
38 | COc1ccc(NC(=O)C(=O)c2cn(CC(=O)N3CCCC3)c3ccccc23)cc1OC | 17.1
39 | Nc1ccccc1S(=O)(=O)C(F)F | 16.7
40 | CN(CC(=O)Nc1ccc(Cl)cc1)C(=O)c1ccc(NS(=O)(=O)c2ccc3[nH]c(=O)[nH]c3c2)cc1 | -0.286
41 | COC(=O)c1cccc(C23CC4(C2)[C@H](CN(Cc2ccc(C(F)(F)F)cc2)[C@@H]4c2ccccc2)C3c2ccc(C(F)(F)F)cc2)c1 (some centres unmarked) | 1.54
42 | COc1ccc(N2CC(C(=O)Nc3ccc(F)cc3F)CC2=O)cc1 (centres unmarked) | -0.618
43 | CCN(CC)CCN=Cc1c(O)n(Cc2ccccc2)c(=O)[nH]c1=O [26665338] | -31.5
44 | CC(=O)c1ccc(N2CCN(C(=O)COc3ccc4c(c3)CCC4)CC2)cc1 | -34
45 | COc1ccc(OC)c(NC(=O)NCCc2cccc(Cl)c2)c1 | 10.1
46 | CC1CCCCN1CC(=O)c1c[nH]c2ccccc12 (centres unmarked) | 0.76
47 | Nc1c(NC2CCCCC2)c2ccccc2oc1=O | -4.31
48 | Cc1cccc(C(C)C)c1NC(=O)CN(C)Cc1cccc(F)c1 | 9.25
49 | O=C(NCCOc1ccc(F)cc1)C1CCC(=O)N(CCCN2CCOCC2)C1 (centres unmarked) | 21.2
50 | COc1ccc(CN2CC(=O)N(c3ccc(C)cc3C)C2=S)cc1OC | -8.05
51 | N#Cc1ccc(Oc2cccnc2)cc1C#N | -13.1
52 | NC(=O)c1c(NC(=O)c2cccnc2)sc2c1CCCCC2 | 9.56
53 | Cc1cc(NC(=O)c2cccc(S(=O)(=O)N3CCOCC3)c2)c2ccccc2n1 | -16.2
